Laboratory results reported in PubChem BioAssay (NCATS).
This list was built around the results that the source calls inconclusive (neither active nor inactive); the mix of calls is not that of the screen. Potencies of inconclusive entries are left out as doubtful fits. Active and inactive are the calls of the source. Calls come from the whole dose curve; as a rule, active = well fitted inhibition curve with a large enough effect; inconclusive = small, poorly fitted or top-dose-only effect; inactive = no such curve, though single readings can be large or run the other way.

test: BET inhibitor-based combinations targeting novel dependencies in MECOM-rearranged (r) AML: OCI-AML3 cell line (AID 2202232); settings: CellTiter-Glo luminescence, 48 h; Potency: OCI-AML3 viability; series mostly up to 46 µM; viability (% of control): at the top concentration; note: nearly all actives have a fitted effect of over 35% in size
Text: Ecotropic viral insertion site 1 (EVI1) is located on chromosome 3q26.2 as part of the MECOM (MDS and EVI1 complex) locus. Under normal hematopoiesis, EVI1 is a regulator of hematopoietic stem cell maintenance and self-renewal and EVI1 levels decrease as the cells differentiate. In approximately 5-10% of de novo acute myeloid leukemia (AML) EVI1 is aberrantly expressed, including Chromosomal inv(3)(q21;q26.2) or t(3;3)(q21;q26.2) alterations (MECOM-r) that account for about 50% of AML with EVI1 overexpression 31. AMLs with high levels of EVI1 have a poor prognosis and an overall survival time averaging between 10-14 months. EVI1 overexpression confers resistance in leukemia cells, highlighting the need to develop new targeted therapies for EVI1 overexpressing AMLs.
Here, we performed an unbiased chemical drug screening by evaluating the single agent activity of a collection of 2,480 oncology-focused, approved and investigational drugs (NCATS Mechanism Interrogation Plates, MIPE v5.0) against a panel of seven AML cell lines. These included four MECOM-r cell-lines (AML-191, AML-194, UCSD-AML1 and HNT-34) and three non-MECOM-r AMLs (MV4-11, OCI-AML3 and SET-2). Exploiting the mechanistic redundancy built in the library, we identified target-level sensitivities in MECOM-r AML cells and relative activity as compared to other AML subtypes.
A collection of 2480 mechanistically annotated dugs (MIPE v5.0) was used to screen four 3q26.2 rearranged AML cell lines and three non-3q26.2 rearranged AML cell lines. This library purposely exploits redundancy by including multiple inhibitors of key onco-targets, while simultaneously encompassing mechanistic diversity, targeting more than 800 distinct mechanisms of action. Briefly, cells were seeded in 5 uL of growth media using a Multidrop Combi dispenser into 1536 well white polystyrene tissue culture treated plates (Corning) at a density of 500cells/well. For each cell-line, for each of the 2480 drugs in MIPE v5.0 library, an 11-point dose curve was generated via a 1536 pin-tool. Plates were incubated for 48 hr at standard incubator conditions, covered by a stainless steel gasketed lid to prevent evaporation. Cell viability was determined by luminescence based, Cell Titer Glo assay (Promega). In detail, 3 uL of Cell Titer Glo were added to each well and plates were incubated at room temperature for 15 min with a stainless-steel lid in place. Luminescence readings were taken using a Viewlux (PerkinElmer) with a 2 s exposure time per plate. Compound dose-response curves were normalized to DMSO and empty well controls on each plate. Quantitative drug activity data from dose-response curves was determined utilizing area Under the Curve (AUC) and Z-transformed AUC (Z-AUC, a mean-centering transformation applied to each individual cell-line screened).
Potency is the fitted concentration of half-maximal effect; tags give direction and shape of the fitted curve.

Structure (SMILES)	Potency	viability (% of control)
C=C(C)[C@H]1Cc2c(ccc3c2O[C@@H]2COc4cc(OC)c(OC)cc4[C@@H]2C3=O)O1	active: 0.332 µM	
CCNC(=O)CC1N=C(c2ccc(Cl)cc2)c2cc(OC)ccc2-n2c(C)nnc21 (stereo not given)	inconclusive [inhibitor, partial curve]	
C=C1C[C@@H]2[C@H](CC[C@]3(C)C(=O)CC[C@@H]23)[C@@]2(C)C=CC(=O)C=C12	inconclusive [inhibitor, full curve, poor fit]	
COc1cc([C@@H]2c3cc4c(cc3[C@@H](O)C3COC(=O)C32)OCO4)cc(OC)c1O (stereo not given in full)	active: 0.296 µM	
O=c1cccc2n1CC1CNC[C@H]2C1		inactive: 122%
CC(C)(O)C(=O)Nc1ccc([N+](=O)[O-])c(C(F)(F)F)c1	inconclusive [inhibitor, partial curve, poor fit]	
NCC1(CC(=O)O)CCCCC1	inconclusive [inhibitor, single point]	
CCOc1ccccc1-n1c(C(C)N2CCN(C(=O)COc3ccc(Cl)cc3)CC2)nc2ccccc2c1=O (stereo not given)	inconclusive [inhibitor, full curve]	
C#CC1(O)CCC2C3CCC4=CC(=O)CCC4(C)C3CCC21C (stereo not given)	inconclusive [inhibitor, full curve, poor fit]	
CN1CCN(c2ccc([N+](=O)[O-])c3no[n+]([O-])c23)CC1	active: 9.34 µM	
Cc1cccc(C)c1NC(=O)CN1CCCC1=O		inactive: 116%
C[C@@H]1CC[C@@]2(OC1)O[C@H]1C[C@H]3[C@@H]4CC=C5C[C@@H](O[C@@H]6O[C@H](CO)[C@@H](O[C@@H]7O[C@@H](C)[C@H](O)[C@@H](O)[C@H]7O)[C@H](O)[C@H]6O[C@@H]6O[C@@H](C)[C@H](O)[C@@H](O)[C@H]6O)CC[C@]5(C)[C@H]4CC[C@]3(C)[C@H]1[C@@H]2C	active: 7.42 µM	
CC(=O)Nc1ccc(OC[C@](C)(O)C(=O)Nc2ccc([N+](=O)[O-])c(C(F)(F)F)c2)cc1		inactive: 102%
CNCC(O)c1ccc(O)cc1 (stereo not given)		inactive: 103%
CC[C@H]1/C=C\C=C/C[C@@H](C)[C@H](O)[C@@](C)(O)C(=O)[C@@H](C)[C@H](O)[C@@H](C)C(=O)[C@@H](C)[C@H](O)[C@@H](C)/C=C\C(=O)O[C@@H]2[C@H](C)[C@H](CC1)O[C@]1(CC[C@H](C)[C@H](C[C@@H](C)O)O1)[C@H]2C	inconclusive [inhibitor, partial curve]	
Cn1c(COP(=O)(NCCBr)NCCBr)cnc1[N+](=O)[O-]	inconclusive [inhibitor, partial curve, poor fit]	
C=C(C)[C@@H]1CCC(C)=C[C@H]1c1c(O)cc(CCCCC)cc1O	active: 20.9 µM	
COc1cc(C)[nH]c(=O)c1CNC(=O)c1c(C)n([C@H](C)C2CCOCC2)c2ccccc12		inactive: 103%
C[C@@H]1CN(Cc2ccc(F)cc2)CCN1C(=O)COc1ccc(Cl)cc1NC(N)=O	inconclusive [inhibitor, partial curve]	
O=c1[nH]c2ccc(Cl)cc2c(N[C@@H]2CN3CCC2CC3)c1-c1nc2ccccc2[nH]1	active: 0.417 µM	

Structure (SMILES)	Potency	viability (% of control)
C[C@]12CC[C@H](O)CC1=CC[C@@H]1[C@@H]2CC[C@]2(C)C(=O)CC[C@@H]12		inactive: 107%
O=P1(NCCCl)OCCCN1CCCl (stereo not given)	inconclusive [inhibitor, partial curve, poor fit]	
CCC1(c2ccc(N)cc2)CCC(=O)NC1=O (stereo not given)	inconclusive [inhibitor, full curve, poor fit]	
Cc1c(C(=O)Nc2cccc(C(F)(F)F)c2)cc(-c2ccccc2)n1CCCN1CCOCC1	inconclusive [inhibitor, partial curve]	
Cc1sc2c(c1C)C(c1ccc(Cl)cc1)=N[C@@H](CC(=O)OC(C)(C)C)c1nnc(C)n1-2	active: 0.263 µM	
O=C(N[C@H]1CN2CCC1CC2)c1ccc(Cl)cc1		inactive: 124%
O=C1CC[C@@]2(O)[C@H]3Cc4ccc(O)c5c4[C@@]2(CCN3CC2CC2)[C@H]1O5		inactive: 122%
O=C(N[C@@H](COc1ccc2[nH]c(=O)[nH]c2c1)c1ccccc1)c1cccn(Cc2ccc(F)c(F)c2)c1=O	active: 10.5 µM	
Cc1ccccc1-n1c(Cn2cnc3c(N)ncnc32)nc2cccc(C)c2c1=O	active: 2.95 µM	
N[C@@H]1C[C@H]1c1ccccc1		inactive: 93.7%
CCN(CC)C(=O)c1ccc(C2=CC3(CCNCC3)Oc3cccc(O)c32)cc1		inactive: 68.9%
O=C(CBr)N1CC([N+](=O)[O-])([N+](=O)[O-])C1	active: 34 µM	
CC(=O)c1c(O)c(C)c(O)c(Cc2c(O)c3c(c(C(=O)/C=C/c4ccccc4)c2O)OC(C)(C)C=C3)c1O		inactive: 58.4%
Cc1cc(SCc2sc(-c3ccc(C(F)(F)F)c(F)c3)nc2C)ccc1OCC(=O)O	inconclusive [inhibitor, partial curve, poor fit]	
O=S(=O)(F)Cc1ccccc1		inactive: 93.5%
O=S(=O)(CC1CS1)c1ccc(Oc2ccccc2)cc1 (stereo not given)	active: 16.6 µM	
Cn1c(CCCC(=O)O)nc2cc(N(CCCl)CCCl)ccc21	inconclusive [inhibitor, partial curve, poor fit]	
O=C(Oc1ccc([N+](=O)[O-])cc1)N1CCC(C(O)(c2ccc3c(c2)OCO3)c2ccc3c(c2)OCO3)CC1	inconclusive [inhibitor, partial curve, poor fit]	
COc1cc(C(=O)N2CC[C@@H](O)[C@@H](N)C2)cc2nc(-c3cc4ccccc4n3CC3CC3)n(C)c12	inconclusive [inhibitor, partial curve, poor fit]	
N#CC(O[C@@H]1O[C@H](CO[C@@H]2O[C@H](CO)[C@@H](O)[C@H](O)[C@H]2O)[C@@H](O)[C@H](O)[C@H]1O)c1ccccc1 (stereo not given in full)		inactive: 87.4%
